This is one part of the list. At the low end of the ranking the order means little. The protein was read in a cell extract, so binding may be indirect.

The assay has as its target T1, HNF4alpha2 (COS-7 nuclear extract) (UniProt P41235).
T1 sequence: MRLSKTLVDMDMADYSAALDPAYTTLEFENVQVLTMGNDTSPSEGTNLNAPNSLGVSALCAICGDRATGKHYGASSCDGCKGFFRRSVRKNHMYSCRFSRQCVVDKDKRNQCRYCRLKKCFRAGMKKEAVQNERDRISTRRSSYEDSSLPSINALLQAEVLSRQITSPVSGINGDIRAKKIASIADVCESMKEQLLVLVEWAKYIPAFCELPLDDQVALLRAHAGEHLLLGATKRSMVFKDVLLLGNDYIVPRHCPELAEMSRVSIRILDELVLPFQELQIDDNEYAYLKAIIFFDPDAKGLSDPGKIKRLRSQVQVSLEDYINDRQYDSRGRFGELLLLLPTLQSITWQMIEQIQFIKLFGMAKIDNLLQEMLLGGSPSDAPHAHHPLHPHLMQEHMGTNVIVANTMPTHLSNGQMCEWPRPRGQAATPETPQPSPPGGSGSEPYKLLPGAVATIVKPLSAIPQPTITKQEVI
The assay can be described thus: protein-binding microarray. The conditions noted are these: COS-7 nuclear extract on double-stranded Agilent 4x180k PBM; binding buffer, salt, pH and temperature not given; high values mean tight binding; double strand, one strand shown; sequences stand for … in …GCCTAGGGAGATTAGAGTATCGGTCGA
Consider TGGCCTCTGCAGACATGGACTCTGGGATCT, for which the binding signal (log2 normalized intensity) worked out at 3.06.

In the case of GGAAGGGAGGTGAGTGCTAGCATTGCTCAG, the binding signal (log2 normalized intensity) is -1.06.

As for TGCATTCCCCCACCTACTGTCTCCTAATCA, the binding signal (log2 normalized intensity) is 2.17.

Consider AAACAAGTAGCAGTTCAAAAGTTCAAAGAT, for which the binding signal (log2 normalized intensity) turned out to be 1.73.

Regarding CCAGAAAAGGCCTAAAAGGTTATCTTCCAG, the binding signal (log2 normalized intensity) is -1.13.

Turning to GATGGGCCAGGCAGGACAGTTTTGTGTGTT, the binding signal (log2 normalized intensity) came out at 1.11.

Consider ATTATTAACTGTAGGCGTATGCTGTACAGA, for which the binding signal (log2 normalized intensity) was found to be 1.29.

In the case of ATAGGGAAAGATAAAAAAGTTCCAGAGACC, the binding signal (log2 normalized intensity) is -1.16.

In the case of AGGGCATGGGCAGCTTTGAAGACTCTCTTT, the binding signal (log2 normalized intensity) was -1.08.

GAAGATGCCAGCCCCGAGATAACCCCTCTC: the binding signal (log2 normalized intensity) was 4.64.

On to CAGGAGGATTCCTGATGCGTTCAAGGAACA, for which the binding signal (log2 normalized intensity) is -0.786.

For the sequence GATAGGCACAATCAGCAAACACAGATAGCA, the binding signal (log2 normalized intensity) is -1.23.

GAGGGGGACACAGTTCAGGCCATCACACTC: the binding signal (log2 normalized intensity) was -1.09.

For the sequence ATCTTCCTGAGGAGAGCAAAGATCACCTGG, the binding signal (log2 normalized intensity) is 1.13.

With CACACACACACAGCATTCCATTCATTTTAG, the binding signal (log2 normalized intensity) is -0.727.

Regarding TTCCCTCATGATTTAGTAAGTTCAAGAAGA, the binding signal (log2 normalized intensity) was 0.956.

Turning to CAGGATGGTAGTTGCTGAAGGGCAGGGTTG, the binding signal (log2 normalized intensity) turned out to be 0.789.

For GTAATCATTTGGGACAAAGTTCATCTGGGC, the binding signal (log2 normalized intensity) worked out at 3.27.

In the case of GTGGGAGAGGGGGACTGCAAGTACGATTGG, the binding signal (log2 normalized intensity) was -0.658.

As for TGCGTGTTATCTATGGAACATGGACTTTGA, the binding signal (log2 normalized intensity) was 8.74.

Consider TTATCAAGCGTGCACCCCAGGTACGGAGGA, for which the binding signal (log2 normalized intensity) was 0.548.

For GGCAGCAGGGAAGAGCCGGCCGGCGGGGTC, the binding signal (log2 normalized intensity) amounted to 1.31.

Turning to ATAAGGGGCAGCAAACCTACCTGAACTTTG, the binding signal (log2 normalized intensity) came to 3.07.

As for ACAGTGGGGAGGGCAGGGTCAGAACCTGCC, the binding signal (log2 normalized intensity) was -1.09.

For the sequence CCATAGCGAAGCCGGCGGCGGAATGCTTGT, the binding signal (log2 normalized intensity) was -0.837.

Take CGGGTATGTGGGGCGTGTGTTAGACTTTGG: the binding signal (log2 normalized intensity) worked out at 4.22.

Take GAGGAAGGAATGCACATGCCTTAAGGGACC: the binding signal (log2 normalized intensity) is -1.34.

Regarding GCAGGAGGTCAGAAACAGAAAGTCCGGGGG, the binding signal (log2 normalized intensity) was -1.09.

Regarding GCTCTGTTTTACAAACACAATGGAAGGCTG, the binding signal (log2 normalized intensity) is -0.962.

Regarding ACCTCAACTCTCAGTTTGGCTCTTATGTCC, the binding signal (log2 normalized intensity) was 1.28.

As for GTCATGGCAACAGTTTTCTGGGATGCCCAA, the binding signal (log2 normalized intensity) was -0.917.

Consider CTAACAAGCTGCCAAACTCTCACTCTACTC, for which the binding signal (log2 normalized intensity) was -1.06.

On to GATGGTACAAATTCATGGCTGGGCTCGGCT, for which the binding signal (log2 normalized intensity) was -1.13.

Consider CTCTGCAACTCAGAGACAGGGATTGGTTCT, for which the binding signal (log2 normalized intensity) is -0.965.

Regarding CTCTCACCTGCCTAACATTCTCTAATCAGG, the binding signal (log2 normalized intensity) is -0.221.

As for AGCAAAGTTCAATTTCCAACAAATGAAACT, the binding signal (log2 normalized intensity) is -1.12.

Take CAAAAGAGGCTTCCTGGGCCAGGTCACTTG: the binding signal (log2 normalized intensity) worked out at 0.0549.

For the sequence AGCTTGAGAAACAGGGGCTTAAACCTTTAA, the binding signal (log2 normalized intensity) is -0.858.

In the case of TAGTGGCTGAAAGTACTGGCCAGATGAGGT, the binding signal (log2 normalized intensity) is -0.921.

Turning to TGTGTCTTGATCTTGCAACTCAACCCTGGC, the binding signal (log2 normalized intensity) worked out at 0.893.

Regarding GTTTGTATTCCTTGTCCTTGACCCTTCCTC, the binding signal (log2 normalized intensity) was determined as 3.7.

In the case of ACACAATCTAAAAAGTATGTCATAATGTAC, the binding signal (log2 normalized intensity) is 1.06.

As to CTATTTACACAGCTGATGGAAGTTTGCCCT, the binding signal (log2 normalized intensity) came out at 2.98.

In the case of ACCGACCTTTGGTTCCTGAACTCAAACCCC, the binding signal (log2 normalized intensity) was 2.57.

On to CACAGGAGAAAACAGCACAAGCAATGGCTG, for which the binding signal (log2 normalized intensity) is -1.23.

As for CCCCACCCCCCACCCCAGAAGTATGGGAAG, the binding signal (log2 normalized intensity) came out at 4.57.

With GTTATCACAGCTGGCCCACTGTTCTCTCTA, the binding signal (log2 normalized intensity) is -1.1.

In the case of CTCTAGCTGTCCTCCTCTGAAGGAACTTCT, the binding signal (log2 normalized intensity) is -0.714.

Consider ATAAATACCAAAGCCATGGCTCCAACCCGA, for which the binding signal (log2 normalized intensity) was -0.953.

TGGGGTCTCGCTGCTTCGGCCTTTGACCTC: the binding signal (log2 normalized intensity) amounted to 7.94.

As to ATCCTGGGCTACCGATATGAGGCTTCCATT, the binding signal (log2 normalized intensity) is -1.32.

With TTCATAGGTCAATTCTTTGAAGTCTTCCCT, the binding signal (log2 normalized intensity) amounted to 0.933.

For CAAATATTTACTAGTTAAGTCACTGGGCTG, the binding signal (log2 normalized intensity) is 0.727.

With AAGTGTCAGAGCAGGTGAACGACTTGACAA, the binding signal (log2 normalized intensity) is -1.16.

With CAGAGGACAGGTTTCCTGAGTTACAGATAA, the binding signal (log2 normalized intensity) was -0.67.

As for GAGAGTCAAAGGTTAATGAGCCCCCTAAAA, the binding signal (log2 normalized intensity) was found to be 4.

Regarding CCTCCTATGATCTTTCATTCCTATTGTCCC, the binding signal (log2 normalized intensity) was 2.12.

For TGGAGATATGATAGCTGACAAGCAAACACA, the binding signal (log2 normalized intensity) was -1.14.

Take AAGAATTGCTCAACCTGGACCTCATTAATA: the binding signal (log2 normalized intensity) is 1.

For the sequence TCGTGCCCTAATCTCACTCTTTGTTATTTA, the binding signal (log2 normalized intensity) is 1.07.

As for GACTACTTCTCACCACCTCTGCTGCGATCA, the binding signal (log2 normalized intensity) is -1.13.

Turning to TGACAATTACATAGTTGAAATAGCATGAAT, the binding signal (log2 normalized intensity) was -0.62.

Take TCTTTGGTGGTGGGGGGTAGCCACTGACAG: the binding signal (log2 normalized intensity) amounted to 0.63.

As for GGTGGTGATGGTGGGAGGGAGGCTTTTGCA, the binding signal (log2 normalized intensity) is -0.879.

As for GCTAAGAGACAGCTCCACAGCTGGACTTTG, the binding signal (log2 normalized intensity) amounted to 5.15.

GATGTTCTACACTGCTTACCCTGCAGTGTG: the binding signal (log2 normalized intensity) came to 0.052.

Take AGAGAGGGATTAAAGTGTAGGGAGTGTCCA: the binding signal (log2 normalized intensity) worked out at 0.856.

For the sequence CTTTGTTGGTTTTGCCCGAGGTCTGATAAG, the binding signal (log2 normalized intensity) amounted to 1.7.

Regarding GAGGCAGTCCTGGCTTGGCCACCTACTAGC, the binding signal (log2 normalized intensity) is -1.15.

With CTAGGAGAATCACTAGGACATATATGAGGA, the binding signal (log2 normalized intensity) was -1.01.

For GTCACCTACATGTGAGAGAGGCTTATGCAT, the binding signal (log2 normalized intensity) is -1.12.

Regarding GATTGGGTCTTCTAGAAACAACACACCTTG, the binding signal (log2 normalized intensity) stood at 0.472.

Turning to GGGCTTGCAAAGGTCAGGTTTCAGGAATCA, the binding signal (log2 normalized intensity) amounted to 1.81.
